Results reported in the supplement of paper PMC10369915.
The list shows a part of the results. Rule as the data show it: active = 3.2 or more and inactive = the rest. The signal is at background level for most entries.

What follows are binders tested against SHP2 C-SH2 domain E139D (assay: enrichment score (SH2-bound / input frequency) (ratio); bacterial display of known human phosphotyrosine sites (pTyr-Var adds point mutants) read by sequencing; higher = stronger binding; tyrosines were phosphorylated by kinases first). Details: peptide library: Human pTyr.
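Also: displayed peptides selected on beads carrying the immobilized SH2 domain, with library peptides lacking any tyrosine serving as negative controls.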

Enrichment score, inactive:
GKENRLCYAIGATDD [MANF_HUMAN_76_YA] 1.35
VEIGNPTYKMYEGGE [LRP1_HUMAN_4473] 0.712
KQVVESAYEVIKLKG [LDHA_HUMAN_239] 0.967
FTATEGQYQPQPGGG [LCK_HUMAN_505] 0.519
GFPAIRDYHFVNATE [LRRK2_HUMAN_1485] 0.67
VVGENTMYAQVFNLQ [LY9_HUMAN_603] 1.67
VFSTTLAYTKSPKVT [MAP9_HUMAN_12] 0.866
VTREEPIYIITEYMA [LYN_HUMAN_316] 1.52
ELRLRNYYYDVVNGG [KSYK_HUMAN_630] 1.24
MTALSQGYRMPRVEN [LYN_HUMAN_460] 0.737
TLQDSDEYSNPAPLP [LPXN_HUMAN_22] 0.56
DLPDELLYGRAGALA [LANC2_HUMAN_198_YA] 0.567
SDEDDEVYQVTVAQA [MDM2_HUMAN_276_YA] 1.25
ADEDEDDYHNPGYLV [LAT_HUMAN_156] 1.06
ANYDGKDYNPLLARQ [MARE3_HUMAN_124] 0.652
TNYSNPVYAKLYMDG [LRP1B_HUMAN_4562] 1.28
EAVATRWYRAPEIML [MAPK3_HUMAN_210_YA] 0.816
SLDGSREYVNVSQEL [LAT_HUMAN_220] 1.03

The binders below were run against SHP2 C-SH2 domain wild-type in the same assay as above. Details: peptide library: Human pTyr.

Enrichment score, active:
VVGENTMYAQVFNLQ [LY9_HUMAN_603] 3.68
TNYSNPVYAKLYMDG [LRP1B_HUMAN_4562] 3.47

Enrichment score, inactive:
GKENRLCYAIGATDD [MANF_HUMAN_76_YA] 1.11
VEIGNPTYKMYEGGE [LRP1_HUMAN_4473] 0.73
KQVVESAYEVIKLKG [LDHA_HUMAN_239] 0.866
FTATEGQYQPQPGGG [LCK_HUMAN_505] 0.487
GFPAIRDYHFVNATE [LRRK2_HUMAN_1485] 0.515
VFSTTLAYTKSPKVT [MAP9_HUMAN_12] 0.909
VTREEPIYIITEYMA [LYN_HUMAN_316] 1.52
ELRLRNYYYDVVNGG [KSYK_HUMAN_630] 1.23
MTALSQGYRMPRVEN [LYN_HUMAN_460] 0.58
TLQDSDEYSNPAPLP [LPXN_HUMAN_22] 0.595
DLPDELLYGRAGALA [LANC2_HUMAN_198_YA] 0.506
SDEDDEVYQVTVAQA [MDM2_HUMAN_276_YA] 1.06
ADEDEDDYHNPGYLV [LAT_HUMAN_156] 0.874
ANYDGKDYNPLLARQ [MARE3_HUMAN_124] 0.588
EAVATRWYRAPEIML [MAPK3_HUMAN_210_YA] 0.654
SLDGSREYVNVSQEL [LAT_HUMAN_220] 0.706

The binders below were run against SHP2 N-SH2 domain L43F in the same assay as above. Details: peptide library: Human pTyr.

Enrichment score, inactive:
GKENRLCYAIGATDD [MANF_HUMAN_76_YA] 1.08
VEIGNPTYKMYEGGE [LRP1_HUMAN_4473] 0.728
KQVVESAYEVIKLKG [LDHA_HUMAN_239] 0.682
FTATEGQYQPQPGGG [LCK_HUMAN_505] 0.454
GFPAIRDYHFVNATE [LRRK2_HUMAN_1485] 0.589
VVGENTMYAQVFNLQ [LY9_HUMAN_603] 0.783
VFSTTLAYTKSPKVT [MAP9_HUMAN_12] 1.03
VTREEPIYIITEYMA [LYN_HUMAN_316] 1.56
ELRLRNYYYDVVNGG [KSYK_HUMAN_630] 1.3
MTALSQGYRMPRVEN [LYN_HUMAN_460] 0.66
TLQDSDEYSNPAPLP [LPXN_HUMAN_22] 0.493
DLPDELLYGRAGALA [LANC2_HUMAN_198_YA] 0.637
SDEDDEVYQVTVAQA [MDM2_HUMAN_276_YA] 1.09
ADEDEDDYHNPGYLV [LAT_HUMAN_156] 1.2
ANYDGKDYNPLLARQ [MARE3_HUMAN_124] 0.654
TNYSNPVYAKLYMDG [LRP1B_HUMAN_4562] 1.05
EAVATRWYRAPEIML [MAPK3_HUMAN_210_YA] 0.65
SLDGSREYVNVSQEL [LAT_HUMAN_220] 0.881

What follows are binders tested against SHP2 N-SH2 domain T42A in the same assay as above. Details: peptide library: Human pTyr.

Enrichment score, inactive:
GKENRLCYAIGATDD [MANF_HUMAN_76_YA] 1.23
VEIGNPTYKMYEGGE [LRP1_HUMAN_4473] 0.642
KQVVESAYEVIKLKG [LDHA_HUMAN_239] 0.668
FTATEGQYQPQPGGG [LCK_HUMAN_505] 0.392
GFPAIRDYHFVNATE [LRRK2_HUMAN_1485] 0.586
VVGENTMYAQVFNLQ [LY9_HUMAN_603] 0.968
VFSTTLAYTKSPKVT [MAP9_HUMAN_12] 1.12
VTREEPIYIITEYMA [LYN_HUMAN_316] 1.77
ELRLRNYYYDVVNGG [KSYK_HUMAN_630] 1.24
MTALSQGYRMPRVEN [LYN_HUMAN_460] 0.654
TLQDSDEYSNPAPLP [LPXN_HUMAN_22] 0.401
DLPDELLYGRAGALA [LANC2_HUMAN_198_YA] 0.572
SDEDDEVYQVTVAQA [MDM2_HUMAN_276_YA] 1.05
ADEDEDDYHNPGYLV [LAT_HUMAN_156] 1.03
ANYDGKDYNPLLARQ [MARE3_HUMAN_124] 0.453
TNYSNPVYAKLYMDG [LRP1B_HUMAN_4562] 2.08
EAVATRWYRAPEIML [MAPK3_HUMAN_210_YA] 0.657
SLDGSREYVNVSQEL [LAT_HUMAN_220] 0.771

What follows are binders tested against SHP2 N-SH2 domain T52S in the same assay as above. Details: peptide library: Human pTyr.

Enrichment score, inactive:
GKENRLCYAIGATDD [MANF_HUMAN_76_YA] 1.34
VEIGNPTYKMYEGGE [LRP1_HUMAN_4473] 0.822
KQVVESAYEVIKLKG [LDHA_HUMAN_239] 0.683
FTATEGQYQPQPGGG [LCK_HUMAN_505] 0.471
GFPAIRDYHFVNATE [LRRK2_HUMAN_1485] 0.557
VVGENTMYAQVFNLQ [LY9_HUMAN_603] 0.787
VFSTTLAYTKSPKVT [MAP9_HUMAN_12] 0.923
VTREEPIYIITEYMA [LYN_HUMAN_316] 1.59
ELRLRNYYYDVVNGG [KSYK_HUMAN_630] 1.14
MTALSQGYRMPRVEN [LYN_HUMAN_460] 0.622
TLQDSDEYSNPAPLP [LPXN_HUMAN_22] 0.752
DLPDELLYGRAGALA [LANC2_HUMAN_198_YA] 0.533
SDEDDEVYQVTVAQA [MDM2_HUMAN_276_YA] 1.22
ADEDEDDYHNPGYLV [LAT_HUMAN_156] 1.24
ANYDGKDYNPLLARQ [MARE3_HUMAN_124] 0.565
TNYSNPVYAKLYMDG [LRP1B_HUMAN_4562] 1.08
EAVATRWYRAPEIML [MAPK3_HUMAN_210_YA] 0.803
SLDGSREYVNVSQEL [LAT_HUMAN_220] 0.817

Each binder was assayed against SHP2 N-SH2 domain wild-type in the same assay as above. Details: peptide library: Human pTyr.

Enrichment score, inactive:
GKENRLCYAIGATDD [MANF_HUMAN_76_YA] 1.44
VEIGNPTYKMYEGGE [LRP1_HUMAN_4473] 0.571
KQVVESAYEVIKLKG [LDHA_HUMAN_239] 0.91
FTATEGQYQPQPGGG [LCK_HUMAN_505] 0.503
GFPAIRDYHFVNATE [LRRK2_HUMAN_1485] 0.546
VVGENTMYAQVFNLQ [LY9_HUMAN_603] 0.832
VFSTTLAYTKSPKVT [MAP9_HUMAN_12] 1.15
VTREEPIYIITEYMA [LYN_HUMAN_316] 2.12
ELRLRNYYYDVVNGG [KSYK_HUMAN_630] 1.67
MTALSQGYRMPRVEN [LYN_HUMAN_460] 0.496
TLQDSDEYSNPAPLP [LPXN_HUMAN_22] 0.537
DLPDELLYGRAGALA [LANC2_HUMAN_198_YA] 0.527
SDEDDEVYQVTVAQA [MDM2_HUMAN_276_YA] 1.51
ADEDEDDYHNPGYLV [LAT_HUMAN_156] 0.907
ANYDGKDYNPLLARQ [MARE3_HUMAN_124] 0.862
TNYSNPVYAKLYMDG [LRP1B_HUMAN_4562] 0.718
EAVATRWYRAPEIML [MAPK3_HUMAN_210_YA] 0.84
SLDGSREYVNVSQEL [LAT_HUMAN_220] 0.808
